# Hit rate of the full screen: of about 370,000 compounds, about 150 (0.041%) were called active. Inconclusive results, whose numbers are uncertain, are shown with a selection of clear calls. The call rests on the fitted dose curve; in most records, active means well fitted inhibition curve with a large enough effect; inconclusive means small, poorly fitted or top-dose-only effect; inactive means flat fitted curve, though single readings scatter. Potencies of inconclusive entries are left out as doubtful fits.
# Target: Beta-lactamase (Escherichia coli (strain K12)) (UniProt P00811)
# Experiment: qHTS Inhibitors of AmpC Beta-Lactamase (assay with detergent); further: nearly all actives have a fitted effect of over 25% in size;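 on activity change, negative = inhibition: 0% = no-compound wells and -100% = no-enzyme wells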
# Details: AmpC hydrolysis of nitrocefin, absorbance 480 nm, 0.01% Triton; activity change, negative = inhibition: at 114 µM (top of the series)
# Procedure, shortened: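 AmpC (5.3 nM in the dispensed reagent) in 20 mM phosphate pH 7.0 with 0.01% (detergent screen) or 0.0001% Triton X-100 was preincubated with compounds for 15 min at room temperature. Nitrocefin was then added from an 800 uM solution, and hydrolysis was followed at 480 nm.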
# Potency means the concentration at half of the fitted maximal effect; tags describe the fitted curve by direction and shape.
# UniProt P00811, sequence (P00811 whole entry, looked up): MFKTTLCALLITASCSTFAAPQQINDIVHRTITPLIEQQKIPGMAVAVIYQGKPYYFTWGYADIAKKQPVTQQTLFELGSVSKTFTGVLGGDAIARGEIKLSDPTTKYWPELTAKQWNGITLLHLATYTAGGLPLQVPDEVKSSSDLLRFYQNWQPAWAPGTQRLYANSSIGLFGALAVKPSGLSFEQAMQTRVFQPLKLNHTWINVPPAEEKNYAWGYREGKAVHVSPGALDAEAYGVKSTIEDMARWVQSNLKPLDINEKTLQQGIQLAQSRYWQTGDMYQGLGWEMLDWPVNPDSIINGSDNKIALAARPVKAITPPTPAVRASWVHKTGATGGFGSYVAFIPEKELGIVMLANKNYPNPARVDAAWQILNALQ
SMILES,Potency,"activity change, negative = inhibition"
O=C(CCNc1cccc(Cl)c1)c1ccco1,"inconclusive [inhibitor, full curve, poor fit]",
COc1ccc(OC)c(NC(=O)NC2CCCCCCC2)c1,,inactive: -6.48%
Cc1nnc(NC(=O)CN2CCN(Cc3ccccc3Cl)CC2)s1,,inactive: -0.683%
CC(C)c1nnc(NC(=O)Cc2cccs2)s1,"inconclusive [inhibitor, full curve, poor fit]",
O=C(OCc1ccccc1Cl)c1cccnc1Cl,,inactive: -4.64%
COc1ccc(N2CCN(C(=O)CN(c3ccc(Br)cc3)S(C)(=O)=O)CC2)cc1,"inconclusive [inhibitor, full curve, poor fit]",
CC(C)(C)c1ccc(C(=O)NCCNC(=O)c2ccco2)cc1,"inconclusive [inhibitor, full curve, poor fit]",
COc1cccc(NC(=O)NCc2ccc(F)cc2)c1,"inconclusive [inhibitor, single point]",
CCn1ncc(C2=NOC(C(=O)NCCc3ccccc3)C2)c1C (configuration not stated),"inconclusive [inhibitor, full curve, poor fit]",
COc1ccccc1OCCNC(=O)c1ccc(C)o1,"inconclusive [inhibitor, partial curve, poor fit]",
Cc1cc(C)nc(N(C#N)Cc2ccccc2Cl)n1,"inconclusive [inhibitor, full curve, poor fit]",
CCSc1nsc(SCC)c1C(N)=O,"inconclusive [inhibitor, partial curve, poor fit]",
Cc1ccc(C)c(S(=O)(=O)Nc2ccc(O)c3ccccc23)c1,,inactive: 3.41%
Cc1sc2ncnc(N3CCC(C(=O)NNC(=O)COc4cccc(C(F)(F)F)c4)CC3)c2c1C,"inconclusive [inhibitor, full curve, poor fit]",
Cc1ccc(N(CC(=O)NCc2ccc3c(c2)OCO3)S(C)(=O)=O)cc1,"inconclusive [inhibitor, full curve, poor fit]",
COc1ccc(CNC(=O)[C@H](C)N2C(=O)N3CCc4c([nH]c5ccc(OC)cc45)[C@@]3(C)C2=O)cc1,"inconclusive [inhibitor, full curve, poor fit]",
COc1cccc(C(=O)/C=C/Nc2ccc(S(=O)(=O)Nc3nc(C)cc(C)n3)cc2)c1,"inconclusive [inhibitor, full curve, poor fit]",
CC(Oc1ccccc1F)C(=O)NNC(=O)c1ccc(F)c(S(=O)(=O)N2CCOCC2)c1 (configuration not stated),"inconclusive [inhibitor, partial curve, poor fit]",
CC(C)Oc1ccc(CNCC2(O)CCOC(C)(C)C2)cc1 (configuration not stated),"inconclusive [inhibitor, partial curve, poor fit]",
Oc1cccnc1SCc1ccccc1,"inconclusive [inhibitor, single point]",
Cn1cc(S(=O)(=O)N2CCN(Cc3ccccc3)CC2)c(=O)n(C)c1=O,"inconclusive [inhibitor, full curve]",

SMILES,Potency,"activity change, negative = inhibition"
O=C(Nc1ccnc(-c2cccnc2)n1)c1ccccc1Cl,"inconclusive [inhibitor, full curve, poor fit]",
COCCCNC1CS(=O)(=O)CC1O (configuration not stated),"inconclusive [inhibitor, single point]",
Oc1c(Br)cc(Cl)cc1C=Nc1ccccc1Br,"inconclusive [inhibitor, full curve, poor fit]",
Cc1cc(C)c(COc2ccc(/C=N/n3c(C)n[nH]c3=S)cc2)c(C)c1,,inactive: -14.6%
Cc1ccc(-n2nc(C)c3c(C)c(CCC(=O)NC(C)c4ccccc4)c(C)nc32)cc1 (configuration not stated),"inconclusive [inhibitor, full curve, poor fit]",
CNC(=O)C1CC(=O)N(c2ccc(OCC(=O)N3CCCC3)cc2)C1 (configuration not stated),"inconclusive [inhibitor, full curve, poor fit]",
COc1ccc(C(=O)NC(=S)Nc2cc3oc4ccccc4c3cc2OC)cc1,"inconclusive [inhibitor, partial curve, poor fit]",
O=C(C1CCN(c2nc3ccc(Br)cc3s2)CC1)N1CCC2(CC1)OCCO2,,inactive: -0.295%
COc1ccc(N2CCN(CCCn3c(=S)[nH]c4ccccc4c3=O)CC2)cc1,,inactive: 1.34%
COc1ccc(S(=O)(=O)N2CCCC2CNC(=O)C(=O)NCc2ccccc2Cl)cc1 (configuration not stated),,inactive: -18.2%
Cc1nc(N2CCOCC2)nc(OCCN(C)C)c1[N+](=O)[O-],"inconclusive [inhibitor, full curve, poor fit]",
CCC1Sc2ccccc2N(CC(=O)NCc2ccc(C)cc2)C1=O (configuration not stated),,inactive: 3.71%
COC(=O)c1ccc(C(=O)OC)c(NC(=S)N2CC(C)CC(C)C2)c1 (configuration not stated),"inconclusive [inhibitor, partial curve, poor fit]",
Clc1ccc(Oc2nnnn2-c2ccccc2)cc1,"inconclusive [inhibitor, partial curve, poor fit]",
CN(C)S(=O)(=O)c1cccc(C(=O)OCC(=O)Nc2ccccc2OC(F)F)c1,"inconclusive [inhibitor, full curve, poor fit]",
O=C(CSc1ccccc1C(=O)NCCCN1CCCC1=O)NCc1ccco1,"inconclusive [inhibitor, partial curve, poor fit]",
O=c1cc(-c2ccc(C3CCCCC3)cc2)[nH][nH]1,,inactive: -5.9%
CCC(C(=O)NC1CC(C)(C)NC(C)(C)C1)c1ccccc1 (configuration not stated),"inconclusive [inhibitor, full curve, poor fit]",
Cc1c(C)c2c(OCC(=O)Nc3ccc(CCO)cc3)cc3c(c2oc1=O)CCC(C)(C)O3,"inconclusive [inhibitor, partial curve, poor fit]",
O=C(NCc1ccccc1F)C1CCN(C(=O)NCc2ccccc2)CC1,"inconclusive [inhibitor, partial curve, poor fit]",
CC1=NN(c2ccc([N+](=O)[O-])cc2)C(=O)/C1=C\N(C)C,"inconclusive [inhibitor, partial curve]",
